Reference: PMC2991254
Positions count from the first letter of the chain named. In names and notes the source's numbering stands. These are yes or no findings as the source states them, for the method shown. Some results given as binding are weak or reduced against the parent protein; the word gives no strength. Blank lines part the entries; values can stand above or below the binder they belong to.

Amino acid sequences for entries named in this document (tags omitted).
UniProt Q38840: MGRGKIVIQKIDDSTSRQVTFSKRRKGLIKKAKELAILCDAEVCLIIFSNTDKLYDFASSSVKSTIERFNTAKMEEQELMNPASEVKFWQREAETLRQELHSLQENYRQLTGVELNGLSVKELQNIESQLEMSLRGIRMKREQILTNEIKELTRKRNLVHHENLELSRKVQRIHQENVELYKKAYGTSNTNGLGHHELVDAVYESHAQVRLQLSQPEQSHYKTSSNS
UniProt P29385: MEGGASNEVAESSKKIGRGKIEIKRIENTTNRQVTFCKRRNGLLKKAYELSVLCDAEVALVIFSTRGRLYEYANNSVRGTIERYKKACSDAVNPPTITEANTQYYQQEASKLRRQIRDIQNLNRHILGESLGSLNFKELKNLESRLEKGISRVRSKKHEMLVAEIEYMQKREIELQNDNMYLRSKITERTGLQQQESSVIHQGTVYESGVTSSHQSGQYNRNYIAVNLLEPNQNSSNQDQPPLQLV
UniProt P29381: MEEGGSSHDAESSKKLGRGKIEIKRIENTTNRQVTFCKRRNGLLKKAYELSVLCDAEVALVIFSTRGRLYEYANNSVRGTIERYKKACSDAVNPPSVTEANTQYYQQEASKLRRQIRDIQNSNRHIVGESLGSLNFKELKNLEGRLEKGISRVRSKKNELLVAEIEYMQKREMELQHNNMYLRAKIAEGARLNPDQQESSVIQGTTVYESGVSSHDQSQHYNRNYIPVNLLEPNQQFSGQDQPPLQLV
UniProt Q9SI38: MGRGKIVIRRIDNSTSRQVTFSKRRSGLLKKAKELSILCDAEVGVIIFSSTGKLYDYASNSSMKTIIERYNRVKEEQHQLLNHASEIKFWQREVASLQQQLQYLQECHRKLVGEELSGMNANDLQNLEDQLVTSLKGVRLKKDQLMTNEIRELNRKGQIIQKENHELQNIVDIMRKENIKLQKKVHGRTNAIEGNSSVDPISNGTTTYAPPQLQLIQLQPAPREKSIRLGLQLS
UniProt P29384: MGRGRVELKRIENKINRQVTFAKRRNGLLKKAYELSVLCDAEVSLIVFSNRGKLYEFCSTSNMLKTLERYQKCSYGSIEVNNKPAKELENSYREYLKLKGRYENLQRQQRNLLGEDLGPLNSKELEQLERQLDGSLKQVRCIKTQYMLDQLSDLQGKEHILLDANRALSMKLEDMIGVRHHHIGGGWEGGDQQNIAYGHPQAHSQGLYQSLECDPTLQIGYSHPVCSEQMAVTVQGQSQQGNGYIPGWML
UniProt Q38836: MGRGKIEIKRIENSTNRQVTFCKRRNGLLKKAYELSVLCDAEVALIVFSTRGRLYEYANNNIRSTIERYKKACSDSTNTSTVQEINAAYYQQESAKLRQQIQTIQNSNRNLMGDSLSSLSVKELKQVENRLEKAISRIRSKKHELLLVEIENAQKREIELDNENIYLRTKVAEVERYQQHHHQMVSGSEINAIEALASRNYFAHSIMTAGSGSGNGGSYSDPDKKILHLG
UniProt A2RVQ5: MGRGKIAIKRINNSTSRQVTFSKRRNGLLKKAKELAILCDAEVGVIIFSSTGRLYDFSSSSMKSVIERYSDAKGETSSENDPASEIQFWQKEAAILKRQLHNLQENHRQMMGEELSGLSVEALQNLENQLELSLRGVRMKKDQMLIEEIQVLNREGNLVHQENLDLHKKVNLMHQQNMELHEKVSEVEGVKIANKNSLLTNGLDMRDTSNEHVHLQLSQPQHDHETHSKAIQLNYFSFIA
UniProt O22456: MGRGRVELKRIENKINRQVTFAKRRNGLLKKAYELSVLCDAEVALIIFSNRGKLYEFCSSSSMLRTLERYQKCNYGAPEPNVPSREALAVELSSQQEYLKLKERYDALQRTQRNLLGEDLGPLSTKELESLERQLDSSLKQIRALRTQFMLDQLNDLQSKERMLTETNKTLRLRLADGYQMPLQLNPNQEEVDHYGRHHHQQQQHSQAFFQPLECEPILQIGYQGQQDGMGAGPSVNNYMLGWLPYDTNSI
UniProt O82743: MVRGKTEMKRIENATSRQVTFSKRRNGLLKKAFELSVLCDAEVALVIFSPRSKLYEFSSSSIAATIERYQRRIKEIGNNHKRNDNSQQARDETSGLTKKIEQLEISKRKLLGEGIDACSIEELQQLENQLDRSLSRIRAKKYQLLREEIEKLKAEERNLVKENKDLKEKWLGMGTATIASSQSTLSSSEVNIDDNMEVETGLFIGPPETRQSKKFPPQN
UniProt Q39081: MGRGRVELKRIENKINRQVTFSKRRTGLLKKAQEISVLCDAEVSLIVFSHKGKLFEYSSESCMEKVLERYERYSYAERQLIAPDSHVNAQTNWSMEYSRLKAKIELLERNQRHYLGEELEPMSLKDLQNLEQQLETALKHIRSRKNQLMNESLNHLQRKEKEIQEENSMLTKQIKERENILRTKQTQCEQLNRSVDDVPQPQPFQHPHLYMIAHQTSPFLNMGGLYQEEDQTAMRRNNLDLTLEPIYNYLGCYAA
UniProt P35631: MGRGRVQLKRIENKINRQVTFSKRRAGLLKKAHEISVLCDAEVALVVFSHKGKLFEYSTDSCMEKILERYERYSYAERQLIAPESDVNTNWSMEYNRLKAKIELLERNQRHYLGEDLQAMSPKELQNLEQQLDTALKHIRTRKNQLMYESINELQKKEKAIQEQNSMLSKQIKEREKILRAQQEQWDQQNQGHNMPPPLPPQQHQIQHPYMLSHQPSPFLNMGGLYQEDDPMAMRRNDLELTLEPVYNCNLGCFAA
UniProt P29386: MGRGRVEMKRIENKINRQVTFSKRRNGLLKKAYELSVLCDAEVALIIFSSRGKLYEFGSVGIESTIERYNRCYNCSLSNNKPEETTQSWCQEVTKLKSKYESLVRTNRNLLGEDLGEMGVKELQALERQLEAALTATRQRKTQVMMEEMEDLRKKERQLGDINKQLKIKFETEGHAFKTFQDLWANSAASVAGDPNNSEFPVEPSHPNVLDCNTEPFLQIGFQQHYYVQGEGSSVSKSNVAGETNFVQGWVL
UniProt P29382: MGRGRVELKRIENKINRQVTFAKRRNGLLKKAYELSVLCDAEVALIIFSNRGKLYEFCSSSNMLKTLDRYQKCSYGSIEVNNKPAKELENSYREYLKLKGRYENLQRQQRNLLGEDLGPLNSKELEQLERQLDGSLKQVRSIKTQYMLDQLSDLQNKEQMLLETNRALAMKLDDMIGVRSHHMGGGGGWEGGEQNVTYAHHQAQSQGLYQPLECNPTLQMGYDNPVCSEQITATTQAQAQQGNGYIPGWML
UniProt Q38876: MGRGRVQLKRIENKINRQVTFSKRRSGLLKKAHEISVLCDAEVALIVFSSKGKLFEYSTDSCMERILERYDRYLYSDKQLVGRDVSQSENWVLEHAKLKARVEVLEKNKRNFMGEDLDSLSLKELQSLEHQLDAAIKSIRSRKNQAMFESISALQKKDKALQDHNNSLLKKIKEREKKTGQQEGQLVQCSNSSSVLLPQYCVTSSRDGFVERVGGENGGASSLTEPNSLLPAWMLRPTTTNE

Tests used:
Assay in all cases: two-hybrid; matrix-based yeast two-hybrid, GAL4-AD and GAL4-BD fusions (pDEST22, pDEST32), in duplicate, at least two reporter genes; medium lacking Leu, Trp and His with 1 mM 3-amino-1,2,4-triazole, growth scored after 4 days at 20°C
[1] = target: AGL17 (Arabidopsis thaliana) (UniProt Q38840)
[2] = target: …OOF2 (Arabidopsis thaliana) (UniProt P29385)
[3] = target: …OOF1 (Arabidopsis thaliana) (UniProt P29381)
[4] = target: ANR1 (Arabidopsis thaliana) (UniProt Q9SI38)
[5] = target: T1, AGL13 (Arabidopsis thaliana) (UniProt Q38837)
T1 sequence: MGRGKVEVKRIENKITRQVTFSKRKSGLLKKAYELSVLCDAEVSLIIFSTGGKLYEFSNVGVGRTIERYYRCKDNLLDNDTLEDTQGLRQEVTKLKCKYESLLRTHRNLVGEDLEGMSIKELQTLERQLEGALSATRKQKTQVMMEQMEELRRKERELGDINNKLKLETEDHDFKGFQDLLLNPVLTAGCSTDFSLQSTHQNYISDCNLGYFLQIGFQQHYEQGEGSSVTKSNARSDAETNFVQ

[6] = target: SEP2 (Arabidopsis thaliana) (UniProt P29384)
… (Arabidopsis thaliana) = … (Arabidopsis thaliana) (UniProt Q38836)
[7] = target: AGL16 (Arabidopsis thaliana) (UniProt A2RVQ5)
[8] = target: SEP3 (Arabidopsis thaliana) (UniProt O22456)
[9] = target: AGL19 (Arabidopsis thaliana) (UniProt O82743)
[10] = target: T2, AGL71 (Arabidopsis thaliana) (UniProt Q9LT93)
T2 sequence: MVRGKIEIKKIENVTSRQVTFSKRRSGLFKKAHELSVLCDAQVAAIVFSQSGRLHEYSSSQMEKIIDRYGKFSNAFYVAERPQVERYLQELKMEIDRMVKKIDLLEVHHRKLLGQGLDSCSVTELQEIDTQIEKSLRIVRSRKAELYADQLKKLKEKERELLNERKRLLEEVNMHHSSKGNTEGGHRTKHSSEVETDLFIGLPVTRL

[11] = target: CAULIFLOWER (Arabidopsis thaliana) (UniProt Q39081)
[12] = target: APETALA1 (Arabidopsis thaliana) (UniProt P35631)
[13] = target: AGL6 (Arabidopsis thaliana) (UniProt P29386)
[14] = target: SEP1 (Arabidopsis thaliana) (UniProt P29382)
[15] = target: FRUITFUL (Arabidopsis thaliana) (UniProt Q38876)

binding [1]: no binding | binding [2]: binds | binding [3]: binds | binding [4]: no binding | binding [5]: no binding | binding [6]: binds | binding (… (Arabidopsis thaliana)): binds | binding [7]: binds | binding [8]: binds | binding [9]: no binding | binding [10]: no binding | binding [11]: no binding | binding [12]: binds | binding [13]: no binding | binding [14]: binds | binding [15]: binds
B1: AGL24 R61S (protein, UniProt O82794 1-220)
chain: MAREKIRIKKIDNITARQVTFSKRRRGIFKKADELSVLCDADVALIIFSATGKLFEFSSSSMRDILGRYSLHASNINKLMDPPSTHLRLENCNLSRLSKEVEDKTKQLRKLRGEDLDGLNLEELQRLEKLLESGLSRVSEKKGECVMSQIFSLEKRGSELVDENKRLRDKLETLERAKLTTLKEALETESVTTNVSSYDSGTPLEDDSDTSLKLGLPSWE

binding [1]: no binding | binding [2]: no binding | binding [3]: binds | binding [4]: no binding | binding [5]: no binding | binding [6]: no binding | binding (… (Arabidopsis thaliana)): no binding | binding [7]: binds | binding [8]: binds | binding [9]: no binding | binding [10]: no binding | binding [11]: no binding | binding [12]: binds | binding [13]: binds | binding [14]: binds | binding [15]: binds
B2: AGAMOUS-LIKE24 (protein, UniProt O82794 1-220)
chain: B1 chain with S61R
